# From paper PMC12040169 (PLOS Biology, 2025)
# The other results are listed elsewhere or left out.
# Test system: T1, C. trachomatis L2/434/Bu expressing GFP (CTL2-GFP)
# T1 construct: L2/434/Bu GFP intracellular growth in HeLa cells
# Design: species or system HeLa; C. trachomatis total inclusion area by high-content imaging, normalised to DMSO
# Conditions: total inclusion area; 28.5 h, 10 µM; inhibitor
# Procedure, shortened: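 Host cell viability was gauged from Hoechst-stained nuclei counts, while chlamydial growth was taken from total inclusion area and inclusion number per well. Cells were fixed and imaged by high-content microscopy once bulk GFP and resorufin fluorescence had been measured.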
row,Compound,% of control remaining
1,Cc1ccc(SCCNS(=O)(=O)c2ccc3ccccc3c2)cc1 [CBK267504],93.3425
2,Cc1cccc(N2CCN(CC(=O)Nc3cc(Cl)ccc3C#N)CC2)c1 [CBK306055],64.9234
3,O=C(CCN1C(=O)c2cccc3cccc(c23)C1=O)Oc1ccc2c(c1)OCO2 [CBK266237],88.3183
4,Nc1ncc(-c2cc(C(F)(F)F)cc(C(F)(F)F)c2)nc1-c1ccc(O)cc1 [CBK122503],78.7506
5,CN(C)S(=O)(=O)N1CCN(C(=O)N(c2ccccc2)c2ccccc2)CC1 [CBK267466],103.256
6,CC(=O)N(C)c1nc(-c2cccc(N(C)C)c2)ccc1C(=O)NCc1cccnc1 [CBK076639],118.139
7,COCCn1ccnc1C1CCN(C(=O)C(O)c2cccc(Cl)c2)CC1 (stereo not shown) [CBK306901],44.1961
8,O=C(NCc1ccncc1)C1CCCN(c2nc3c(-c4ccccc4)csc3c(=O)[nH]2)C1 (stereo not shown) [CBK215493],86.7017
9,Cn1c(=O)c2c(nc(N3CCOCC3)n2CCC/N=C2\CCCCN2)n(C)c1=O [CBK218356],86.2096
10,CC(C)(C)c1cc(C[C@H]2CNCC[C@H]2CC(=O)Nc2nccs2)no1 [CBK288798],115.491
11,CCOc1ccc(-c2cncc(NCCc3ccncc3)n2)cc1 [CBK065774],103.833
12,CCN1C(=O)c2ccccc2C(=O)[C@@]2(C)CN(C(=O)C(C)C)C[C@@H]12 [CBK281680],81.5783
13,Cc1cc(I)ccc1OCCCCN1CCN(C)CC1 [CBK269652C],87.0053
14,COc1cc([N+](=O)[O-])c2[nH]c(C(=O)O)c(CCNC(C)=O)c2c1 [CBK260895],99.8684
15,Cn1c(N2CCC(C(=O)NC3CC3)CC2)nc2ccccc21 [CBK283940],50.782
16,CC(=O)Nc1ccc(Oc2cc(C)nc(C3CCNCC3)c2)cc1 [CBK283468],99.2535
17,CN(C)CCN(C(=O)Cc1ccc2c(c1)CCC2)C1CCN(C)CC1 [CBK282182],75.7816
18,COc1ccc2[nH]c3c(c2c1)CCN(CC(C)O)C31CCN(CCOc2ccccc2)C1 (stereo not shown) [CBK084612T],38.9753
19,O=C(CSc1nc2cccnc2[nH]1)Nc1cccc(F)c1 [CBK270113],131.136
20,CCC(=O)N1CCC2(CCCC[C@H]3CN(C(C)=O)CC[C@H]3NC(=O)CNC2=O)CC1 [CBK292147],98.4096
21,Cc1onc(-c2ccccc2)c1CNC(=O)[C@@H]1CCCN1C [CBK144077],88.4249
22,Oc1nc2cccnc2cc1-c1ccc2c(c1)OCCCO2 [CBK081299],114.42
23,COc1ccc([N+](=O)[O-])cc1NC(=O)Nc1ccc(Cl)c(Cl)c1 [CBK267593],116.542
24,CCc1nc2n(n1)CC(NC1CCCc3ccccc31)CC2 (stereo not shown) [CBK304837],75.2907
25,O=C(O)c1cccc(CSc2nnc(-c3ccccc3)c(-c3ccccc3)n2)c1 [CBK269165],79.7925
26,Cc1ccc(Cl)cc1N(CC(=O)O)S(=O)(=O)c1ccccc1 [CBK262424],97.6897
27,O=S(=O)(c1ccc(-n2cnc(Cl)c2Cl)cc1)N1CCCN(Cc2csc(-c3ccccc3)n2)CC1 [CBK062790],82.291

row,Compound,% of control remaining
1,OCCN(CCO)c1ccccc1N(CCO)CCO [CBK009141],49.8459
2,COc1ccc([N+](=O)[O-])c(Oc2ccccc2OCc2ccccc2)n1 [CBK002753],53.4822
3,CC(NC(=O)N(Cc1ccc(CN)cc1)Cc1ccc2ccccc2c1)c1cccc2ccccc12 (stereo not shown) [CBK046092C],47.0797
4,CCc1nc2c(N3CCCn4nc(C(O)C5CC5)cc4C3)ncnc2o1 (stereo not shown) [CBK307543],76.4115
5,Cc1cc(COc2nccc(C(F)(F)F)n2)no1 [CBK115800],95.0288
6,CNS(=O)(=O)CCNC(=O)N1CCCN(Cc2ccc(F)cc2)CC1 [CBK304658],58.316
7,CN1CCc2nc(SCC(=O)c3ccc(-c4ccccc4)cc3)c(C#N)c(-c3cccs3)c2C1 [CBK267447],87.2934
8,O=C(c1ccco1)N1C2CCC1Cn1c(nc3ccccc3c1=O)C2 (stereo not shown) [CBK284452],119.327
9,CC(=O)Nc1ccc(NC(=O)CN(C2CCCCC2)S(C)(=O)=O)cc1 [CBK266755],100.754
10,Cc1ccc(-c2nc3ccccc3[nH]2)cc1NC(=O)CCCc1ccccc1 [CBK265789],119.967
11,COC(=O)[C@H]1CCc2ccccc2N1C(=O)C1CC1 [CBK285518],105.089
12,Cc1nc(CN(C)C2CCN(Cc3ccc4c(c3)CCC4)C2)no1 (stereo not shown) [CBK304052],54.0427
13,O=C(NCCc1ccc(Cl)cc1)C1CCN(C(=O)CCc2ccccc2F)C1 (stereo not shown) [CBK285931],105.525
14,CN(CC(=O)Nc1ccccc1C(N)=O)S(=O)(=O)c1ccc(Br)cc1 [CBK268648],86.9932
15,CN1C(=O)CC2(C1=O)C(=O)N(C)c1ccc(F)cc12 (stereo not shown) [CBK075290],105.642
16,CSCCOc1nccnc1N1CCCC1 [CBK115757],91.7844
17,O=C(Nc1cccc(N2CCNCC2)c1)c1cccnc1 [CBK029414T],57.8438
18,O=S(=O)(Nc1ccc(-c2nc3cccnc3s2)cc1)c1ccccc1 [CBK287547],102.66
19,COC(=O)c1c(NC(=O)COc2ccccc2C(C)C)sc2c1CCCC2 [CBK266722],119.374
20,COc1cc(S(=O)(=O)NCc2ccc3c(c2)OCO3)c(OC)cc1Cl [CBK264972],106.391
21,O=C(CCC(F)(F)F)NCc1csc(-c2ccccc2)n1 [CBK092342],96.8877
22,Cc1ccc(C)c(N2CCN(S(=O)(=O)c3ccc(-c4ccccc4)cc3)CC2)c1 [CBK100692],86.8446
23,Cc1ccccc1CN1CCN(CC2CC3C=CC2C3)CC1 (stereo not shown) [CBK263402],105.356
24,O=C(CCCn1nnc2ccccc2c1=O)NCc1cccc(Cl)c1 [CBK294446],113.98
25,NC(CCCCNC(=O)c1ccccc1)C(=O)O (stereo not shown) [CBK261087],93.659
26,CCOc1ccc(C2(C)C(=O)N(CN3CCOCC3)C(=O)N2CN2CCOCC2)cc1 (stereo not shown) [CBK261359],100.798
27,NC(=O)c1c(F)cccc1-c1cc(NCCO)nc2[nH]ccc12 [CBK306689],71.5503

row,Compound,% of control remaining
1,Nc1ncc(-c2ccccc2CO)nc1NC1CCOCC1 [CBK063799],153.742
2,COc1cc([C@@]23CCC(=O)C[C@@H]2N(C)CC3)ccc1OCc1ccccc1 [CBK049727],53.3386
3,Cc1cccc(NC(=S)N(CCN(C)C)Cc2cc3cc(C)cc(C)c3[nH]c2=O)c1 [CBK135105],107.49
4,CC(=O)Nc1ccc(Nc2ncnc3scc(-c4ccccc4)c23)cc1 [CBK264930],111.752
5,CCn1cc(C(=O)N2CCCCC2c2nc3cc(C)ccc3[nH]2)cn1 (stereo not shown) [CBK283869],80.8528
6,O=C(c1cccnc1)C1CCN(C(=O)c2cc(F)cc(F)c2)CC1 [CBK283746],79.8998
7,O=S(=O)(c1ccc(-c2ccc(S(=O)(=O)N3CCOCC3)cc2)cc1)N1CCOCC1 [CBK261366],66.6765
8,COc1ccc([C@@]23CC[C@@H](NC(=O)Nc4ccc(F)cc4)C[C@@H]2N(C)CC3)cc1OC [CBK036458T],102.202
9,O=C(O)/C=C/C(=O)N(Cc1ccc2c(c1)OCO2)C1CC(=O)N(c2ccccc2)C1=O (stereo not shown) [CBK262786],99.5605
10,CCOC(=O)c1sc(Sc2nnc(C(F)(F)F)n2C)c2c1CC(C)(C)CC2=O [CBK005649],75.9582
11,O=C(CC1CCS(=O)(=O)C1)NC1(c2ccc(Cl)cc2)CC1 (stereo not shown) [CBK282773],106.009
12,CN1CCC(N2CCN(C(=O)c3ccc(-c4cccc(C(F)(F)F)c4)o3)CC2)CC1 [CBK149085],79.9801
13,CCC(C)(C)c1ccc(S(=O)(=O)N2CCCN(Cc3c(-c4ccccc4)noc3C)CC2)cc1 [CBK062888],92.099
14,OC1CCC(Nc2nc(-c3ccccc3)cn3ccnc23)CC1 (stereo not shown) [CBK037329],126.125
15,O=C(O)CCSc1ccnc2ccccc12 [CBK122524C],95.7123
16,NC(=O)CSc1nnc(-c2ccncc2)[nH]1 [CBK026179],43.6967
17,CC(C)(C)c1ccc(/C=C/C(=O)n2cccn2)cc1 [CBK263645],105.484
18,Cc1ccc(CN2C[C@@H](N)[C@H](c3cn(C)c4cnccc34)C2)o1 [CBK285180],94.6367
19,Nc1cccc(-c2cc(Nc3ccc(C4CCCCC4)cc3)ncn2)c1 [CBK091191],104.257
20,Cc1[nH]c2ccccc2c1C(=O)CSc1n[nH]c(N)n1 [CBK268056],86.5615
21,CC(=O)c1ccc(S(=O)(=O)N2CCCCC2CNC(=O)c2ccco2)cc1 (stereo not shown) [CBK051472],69.7146
22,COc1nccnc1N1CCN(CC(N)=O)CC1 [CBK084219],92.0281
23,Cc1cc(NC(=O)CC2CC2)c2ccccc2n1 [CBK116257],84.6215
24,CCC(CCO)CNc1ncnc2ccc(S(C)(=O)=O)cc12 (stereo not shown) [CBK305157],50.7782
25,O=C(NC1(CN2CCCCC2)CCCCC1)NS(=O)(=O)c1ccc(Cl)cc1 [CBK022858],87.485
